The record followed here is the supplement of paper PMC3334620.

Whole data set: some 33,000 sequences, median “E-score (-0.5 to 0.5)” near -0.054, cut for the highest 2% near 0.39. The list shows a part of the results.

For this assay, the target named is Ylr278c (UniProt Q05854). Kind of assay: PBM E-score (8-mer binding enrichment) (E-score (-0.5 to 0.5)); higher = stronger / more preferred TF binding; most listed sequences are background and not binding sites. The settings on record: protein concentration: 200 nM; construct: GST-DNA-binding domain. In a few lines: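 E-scores (a modified Wilcoxon-Mann-Whitney statistic) were assigned by the Universal PBM Analysis Suite to every ungapped eight-base word pooled with its reverse complement. The input came from universal all-10-mer Agilent arrays made double-stranded by primer extension and probed with GST-tagged yeast transcription factors at about 100-200 nM. Fluorescent anti-GST detected bound protein, and masliner normalised the scans.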
With ACCTCGCC, the “PBM E-score” value came to 0.0272.
Then ACAGCACT, with -0.0845.
With TATACATA, the “PBM E-score” value was -0.214.
CGAAGCAC: the “PBM E-score” value was 0.0155.
For the sequence CGGGACAC, the “PBM E-score” value turned out to be 0.0985.
In the case of CAATGTTA, the “PBM E-score” value is -0.126.
Then AACTAATT, with -0.00161.
For the sequence CGTCGTTA, the “PBM E-score” value is 0.032.
In the case of GCTTTCTA, the “PBM E-score” value was -0.0726.
On to CACACAAG, for which the “PBM E-score” value is -0.203.
GGCGACCA: the “PBM E-score” value was -0.0957.
Then GGCTGTTA, with -0.0693; and GTAGAACA, with -0.202.
For ACAGCATG, the “PBM E-score” value is -0.0904.
As for AATAGCCT, the figure is -0.223.
As for GCTTTAGA, the “PBM E-score” value is -0.179.
As to AGGATATA, the “PBM E-score” value was -0.11.
Turning to CCAGTGTA, the “PBM E-score” value is -0.0362.
Turning to CAAGCAAA, the “PBM E-score” value was -0.103.
Consider CCATCTGA, for which the “PBM E-score” value was -0.155.
Turning to TTCAAAAA, the “PBM E-score” value is -0.0673.
Turning to TAAGCTTA, the “PBM E-score” value is -0.262.
Then CACACATC, with -0.0749; and GTCGGACA, with 0.386; and TGGAGACA, with -0.227.
As for TCAGTTAA, the “PBM E-score” value was 0.044.
For the sequence ACTGCATG, the “PBM E-score” value is -0.196.
Then ACGACTTC, with -0.0449; and GGCGTACA, with -0.16.
For ATATTCAC, the “PBM E-score” value was -0.0206.
Consider CCACGTCC, for which the “PBM E-score” value came out at 0.0181.
As for CACTTATC, the figure is -0.155; as for CTGGGCAA, -0.0529.
For the sequence CAATTTAA, the “PBM E-score” value is -0.00752.
Then ACTGGTAG, with -0.116; and CAAGGGGC, with 0.0506; and AAGACGCG, with 0.0674.
With ACATCCGA, the “PBM E-score” value stood at 0.356.
As for TAATGACA, the figure is -0.0415; as for ACACAATG, -0.143; as for CGGTTCTC, 0.102.
As for CCGCTACG, the figure is 0.192; as for GAGGCACC, -0.12; as for ACCTGTTG, -0.16.
As to CGTGTTGC, the “PBM E-score” value amounted to 0.0387.
CGATCGCG: the “PBM E-score” value was determined as 0.244.
Then AGTAACTG, with -0.167.
Then ACGGACAA, with 0.355; and AGCAAACT, with -0.0252.
Consider AAAATAGC, for which the “PBM E-score” value is -0.0827.
Consider ACTTTTTC, for which the “PBM E-score” value amounted to 0.0317.
Then CAGCCTCA, with -0.248; and CACCGCAA, with 0.226; and GCTCCTCC, with 0.0475.
Turning to AGACAAAA, the “PBM E-score” value was -0.0417.
Then ATGCTGGA, with -0.0997.
Then GCACTCGC, with 0.0715.
Then GCAGCGGA, with 0.304.
Turning to AAGTGACA, the “PBM E-score” value was -0.00461.
As for GGTGTTAC, the figure is -0.00064; as for AACACGAC, -0.161.
Then AATCTCAA, with 0.0797.
Then CCACCTCA, with -0.0406; and ACTTAGCA, with -0.0645.
As for GAGCTTCC, the “PBM E-score” value is 0.203.
As for GGGTGTGA, the figure is -0.128; as for CCTCCGCA, 0.359; as for CATCCATA, -0.123.
Regarding CACAGGAA, the “PBM E-score” value came out at 0.0218.
Then ACAATCGG, with 0.352; and GCATTGAC, with -0.161; and GCTAGCAC, with -0.0829.
As for TACCCATA, the “PBM E-score” value was -0.268.
Consider AGATAGCC, for which the “PBM E-score” value turned out to be 0.0998.
Then CGCAGACC, with 0.00499.
Turning to ATCTTCTG, the “PBM E-score” value came to 0.0811.
Consider CCCGACGC, for which the “PBM E-score” value was found to be 0.294.
Consider AGTAACGG, for which the “PBM E-score” value turned out to be 0.0625.
As for GGGATCAC, the figure is -0.0942; as for CGGCCCTC, 0.139.
On to CCGATAGC, for which the “PBM E-score” value worked out at 0.301.
As for AGGAGTAT, the figure is -0.116.
Consider AACATGGA, for which the “PBM E-score” value is -0.0922.
As for GGGATAGA, the figure is -0.0417.
With GATGTGCC, the “PBM E-score” value is 0.00479.
Then GACCTGGC, with -0.0814.
As for AAGAAGAC, the “PBM E-score” value is -0.125.
For the sequence CAGAATTC, the “PBM E-score” value came to 0.0633.
In the case of AACCCACA, the “PBM E-score” value was -0.192.
Then CCCGATCA, with 0.227; and CACAGTGG, with -0.162.
GGACCGAC: the “PBM E-score” value was 0.198.
Consider GTCATAAC, for which the “PBM E-score” value is -0.104.
Then CCACCGGG, with 0.329.
Take CATTTAAA: the “PBM E-score” value amounted to 0.0824.
Then CCGGTTTA, with 0.317; and AGGCCAGA, with -0.0555.
As for AAAAGTGC, the figure is 0.0666; as for GAATCATA, -0.09; as for CATCACTA, -0.195.
As for AACCCGCG, the figure is 0.229; as for CGGTGACA, 0.148; as for AACATGTG, -0.071.
In the case of CATAGCAC, the “PBM E-score” value is -0.0308.
As for CCCCGACG, the figure is 0.363; as for CTAAACAG, -0.148; as for CTAGACGC, -0.236.
As for CTAAAGAG, the figure is -0.213; as for ATTACTTA, 0.148.
For the sequence CTTATTTC, the “PBM E-score” value came out at 0.0792.
